Measurements taken from US9045526B2 (THE REGENTS OF THE UNIVERSITY OF MICHIGAN, priority 2011, dated 2015).
Numbered stars: 1 amine (or outer) side, 2 acyl side, 3 side chain; on linkers, the order of the positions; unused ones are H or OH. Bridge positions count the residues as written; N and C are the ends. Square brackets hold non-standard residues; d marks the D form. Peptide text beside a SMILES is read from it. Dmt = Cc1cc(O)cc(C)c1C[C@H](N)C(=O)O; dPen = CC(C)(S)[C@@H](N)C(=O)O; Aic = NC1(C(=O)O)Cc2ccccc2C1; CH2CH2 = C(C[*:2])[*:1]

Assays:
[1] = molecular target: T1, kappa-opioid receptor (KOR) (Homo sapiens, UniProt P41145); test: Ki, nM | (KOR)
T1 construct: expressed in transfected cells
Source text: (§1) Table printed on a drawing sheet, FIGURE 4
Head of the field: Ki, nM | (KOR)
(§2) First copying reader's note: Each result cell holds the value together with its ± error.

[2] = molecular target: DOR (Rattus norvegicus, UniProt P33533); test: DOR | EC50; set-up: expressed in transfected cells; host or cells: C6 rat glioma cells (C6-DOR), stably transfected
Source text: (§3) Table printed on a drawing sheet, FIGURE 5
Head of the field: DOR | EC50

[3] = molecular target: MOR (Rattus norvegicus, UniProt P33535); test: MOR | EC50, nM; set-up: expressed in transfected cells; host or cells: C6 rat glioma cells (C6-MOR), stably transfected
Source text: as §3

[4] = molecular target: T2, mu-opioid receptor (MOR) (Rattus norvegicus, UniProt P33535); test: Ki, nM | (MOR)
T2 construct: expressed in transfected cells; host or cells: C6 rat glioma cells (C6-MOR), stably transfected
Source text: as §1
Head of the field: Ki, nM | (MOR)
as §2

[5] = molecular target: T3, delta-opioid receptor (DOR) (Rattus norvegicus, UniProt P33533); test: Ki, nM | (DOR)
T3 construct: expressed in transfected cells; host or cells: C6 rat glioma cells (C6-DOR), stably transfected
Source text: as §1
Head of the field: Ki, nM | (DOR)
as §2

T1 sequence (P41145 whole entry, looked up): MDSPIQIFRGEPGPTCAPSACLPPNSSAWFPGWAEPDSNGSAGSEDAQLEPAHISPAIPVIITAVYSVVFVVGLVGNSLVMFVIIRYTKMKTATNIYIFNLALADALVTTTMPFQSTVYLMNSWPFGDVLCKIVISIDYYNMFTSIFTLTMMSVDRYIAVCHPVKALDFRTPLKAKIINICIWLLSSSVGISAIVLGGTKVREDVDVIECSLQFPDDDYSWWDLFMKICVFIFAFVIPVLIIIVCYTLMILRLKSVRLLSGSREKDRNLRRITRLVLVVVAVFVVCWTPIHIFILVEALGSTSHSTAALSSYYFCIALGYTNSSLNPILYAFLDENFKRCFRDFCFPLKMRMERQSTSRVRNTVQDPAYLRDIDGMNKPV
T3 sequence (P33533 whole entry, looked up): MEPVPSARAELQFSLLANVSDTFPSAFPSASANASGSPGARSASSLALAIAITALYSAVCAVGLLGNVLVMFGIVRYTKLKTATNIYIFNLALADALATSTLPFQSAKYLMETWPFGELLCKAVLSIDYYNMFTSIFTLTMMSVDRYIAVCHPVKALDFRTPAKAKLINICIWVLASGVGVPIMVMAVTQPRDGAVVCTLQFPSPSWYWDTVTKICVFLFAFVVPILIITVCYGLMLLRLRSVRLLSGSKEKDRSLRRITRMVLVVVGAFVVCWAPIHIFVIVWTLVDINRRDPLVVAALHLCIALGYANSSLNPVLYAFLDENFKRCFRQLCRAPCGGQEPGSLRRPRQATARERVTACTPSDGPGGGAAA
Chain of DOR (P33533 whole entry, looked up): as above
T2 sequence (P33535 whole entry, looked up): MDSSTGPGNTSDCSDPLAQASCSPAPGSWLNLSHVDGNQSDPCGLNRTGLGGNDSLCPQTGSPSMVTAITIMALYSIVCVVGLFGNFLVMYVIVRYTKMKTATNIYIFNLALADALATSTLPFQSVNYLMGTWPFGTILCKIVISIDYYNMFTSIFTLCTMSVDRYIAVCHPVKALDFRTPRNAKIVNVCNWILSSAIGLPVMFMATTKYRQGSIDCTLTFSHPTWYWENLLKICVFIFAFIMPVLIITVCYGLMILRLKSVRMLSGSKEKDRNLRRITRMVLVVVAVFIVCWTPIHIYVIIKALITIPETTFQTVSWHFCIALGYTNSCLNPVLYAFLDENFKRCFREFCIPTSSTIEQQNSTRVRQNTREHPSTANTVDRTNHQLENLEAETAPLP
Chain of MOR (P33535 whole entry, looked up): as above

Row | Structure (SMILES) | Ki [1] [nM] | EC50 [2] [nM] | EC50 [3] [nM] | Ki [4] [nM] | Ki [5] [nM]
1 | Cc1cc(O)cc(C)c1C[C@H](N)C(=O)N[C@@H]1CSCCSC(C)(C)[C@H](C(=O)N[C@H](C(N)=O)[C@@H](C)O)NC(=O)C2(Cc3ccccc3C2)NC1=O [VRP-21] (H-[Dmt][dC][Aic][dPen]T-NH2; linker 2-4 via CH2CH2; N-terminus assumed) | 607 ± 56 | – | – | – | –
2 | Cc1cc(O)cc(C)c1C[C@H](N)C(=O)N[C@@H]1CSCCSC(C)(C)[C@H](C(=O)N[C@@H](CO)C(N)=O)NC(=O)C2(Cc3ccccc3C2)NC1=O [VRP-19] (H-[Dmt][dC][Aic][dPen]S-NH2; linker 2-4 via CH2CH2) | – | 22.4 ± 12.7 | 6.64 ± 4.8 | – | –
3 | Cc1cc(O)cc(C)c1C[C@H](N)C(=O)N[C@@H]1CSCCSC(C)(C)[C@H](C(=O)N[C@@H](CCCNC(=N)N)C(N)=O)NC(=O)C2(Cc3ccccc3C2)NC1=O [VRP-24] (H-[Dmt][dC][Aic][dPen]R-NH2; linker 2-4 via CH2CH2) | 65.3 ± 5.8 | – | – | 0.43 ± 0.06 | 3.6 ± 0.3
